# Experimental data: PubChem BioAssay AID1508642 (National Center for Advancing Translational Sciences (NCATS), 2021)
# Out of some 43,000 compounds screened, about 200 (0.47%) were called active. Inconclusive means that the source gave no clear call. Such entries were picked first, then a sample of the others. The call rests on the fitted dose curve; in most records, active means well fitted cell-killing curve with a large enough effect; inconclusive means small, poorly fitted or top-dose-only effect, or effect the other way; inactive means flat fitted curve, though single readings scatter. A potency beside an inconclusive call is a rough fit, not a confirmed value.
# Assay: Cell viability qHTS assay in S16 Pmp22-F2sN cells; further: nearly all actives have a fitted effect of over 65% in size
# Conditions: S16 Pmp22-F2sN Schwann cells viability, CellTiter-Glo, 24 h; series mostly up to 57.5 µM
# Outline: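 S16 Pmp22-F2sN Schwann cells (500-1,000/well) in phenol-red-free DMEM with 10% FBS received 23 nL compound by pin tool for 24 h at 37 °C. Viability was then read as CellTiter-Glo luminescence after 15 min at room temperature.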
# Potency means the concentration at half of the fitted maximal effect; tags describe the fitted curve by direction and shape.
row,SMILES,Potency
1,COCCCNC(=O)C1CCN(Cc2cc3ccccc3n2Cc2cccc(Cl)c2)CC1,"inconclusive: 39.8 µM [cytotoxic, single point]"
2,CCCN(Cc1cccs1)C(=O)Nc1cc(C)cc(C)c1,inactive
3,O=C1c2ccccc2-c2onc3c(N4CCN(C5CCCCC5)CC4)cc(NCCO)c1c23,inactive
4,Cc1ccc(-c2cn3c(n2)sc2cc(C(=O)NCCCN4CCCCCC4)ccc23)cc1,"inconclusive: 39.8 µM [cytotoxic, single point]"
5,CCCN(CCC)C(=O)c1cc2c(=O)n3cccc(C)c3nc2s1,"inconclusive: 35.5 µM [cytotoxic, partial curve, poor fit]"
6,Clc1ccc(CN2CCN(c3ncnc4sc5c(c34)CCCC5)CC2)cc1Cl,"inconclusive: 0.112 µM [rising, full curve, poor fit]"
7,Cc1ccc2sc(N(Cc3cccnc3)C(=O)CCS(=O)(=O)c3ccccc3)nc2c1C,"inconclusive: 22.4 µM [cytotoxic, single point]"
8,CCN(CC)C(=O)c1sc2c(c1C)c(=O)n(Cc1ccccc1)c(=O)n2Cc1ccccc1C,"inconclusive: 31.6 µM [cytotoxic, single point]"
9,Cc1ccsc1CCN1C(=O)N(c2ccccc2)C(=O)C1CC(=O)Nc1ccc(Cl)cc1 (configuration not stated),active: 31.6 µM
10,CCC(Sc1nc2c(sc3ccccc32)c(=O)n1CCc1ccc(OC)c(OC)c1)C(=O)N(CC)CC (configuration not stated),"inconclusive: 39.8 µM [cytotoxic, single point]"
11,CCS(=O)(=O)c1ncc(Cl)c(C(=O)N2CCN(c3ccc(OC)cc3)CC2)n1,active: 7.94 µM
12,CCc1ccc(CNC(=O)CCCn2ccc3cc(S(=O)(=O)N4CCCC4)ccc32)cc1,"inconclusive: 8.91 µM [cytotoxic, partial curve]"
13,COc1ccc(NC(=O)CN2C(=O)COc3ccc(S(=O)(=O)N4CCOCC4)cc32)cc1,inactive
14,O=C(NCc1ccccc1)C(=O)Nc1c2c(nn1-c1ccc(F)cc1)CSC2,"inconclusive: 25.1 µM [cytotoxic, single point]"
15,Cc1ccc(CNC(=O)Cn2c(SCC(=O)Nc3ccc(F)cc3)nc3ccccc32)cc1,"inconclusive: 28.2 µM [cytotoxic, single point]"
16,COc1ccc(NC(=O)/C=C\C(=O)N(c2ccc(C(C)C)cc2)C(C(=O)NCc2ccco2)c2ccc(C)cc2)cc1 (configuration not stated),"inconclusive: 35.5 µM [cytotoxic, single point]"
17,CCc1ccc(OCC(=O)Nc2ccc3c(c2)c2ccccc2n3CC)cc1,"inconclusive: 39.8 µM [cytotoxic, partial curve, poor fit]"
18,CCOc1ccc(-c2cn3c(n2)sc2cc(C(=O)NCCCN4CCCCCC4)ccc23)cc1,"inconclusive: 39.8 µM [cytotoxic, single point]"
19,CCc1ccc2oc(C(=O)NCC(c3ccc(OC)cc3)N3CCCCC3)c(C)c2c1 (configuration not stated),"inconclusive: 39.8 µM [cytotoxic, single point]"
20,CCc1ccc(S(=O)(=O)c2cn(CC(=O)Nc3ccc(F)c(Cl)c3)c3ccccc3c2=O)cc1,"inconclusive: 25.1 µM [cytotoxic, single point]"
21,Cc1ccccc1-c1nc(CN2CCCC(C(=O)NCc3ccc(Cl)cc3)C2)c(C)o1 (configuration not stated),inactive

row,SMILES,Potency
1,Cc1ccc2nc(CN3CCN(C(=O)Nc4ccc(F)cc4)CC3)oc2c1,"inconclusive: 7.08 µM [cytotoxic, full curve, poor fit]"
2,CSc1nc(NCCOC(C)=O)c(C#N)c(-c2ccc(C(C)(C)C)cc2)n1,"inconclusive: 31.6 µM [cytotoxic, single point]"
3,Cc1nc2cc(-c3ccccc3)nn2c(C)c1CCC(=O)N1CCN(c2ccc(F)cc2)CC1,inactive
4,Cc1ccc(CN2C(=O)C(O)(c3c(C)[nH]c4ccccc34)c3ccccc32)cc1 (configuration not stated),inactive
5,COc1ccc(NC(=O)C2CCC(CNS(=O)(=O)c3cccc4nsnc34)CC2)cc1OC (configuration not stated),"inconclusive: 35.5 µM [cytotoxic, single point]"
6,COc1cc(C2CC(=O)N(Cc3cccc(F)c3)c3ccccc3S2)cc(OC)c1OC (configuration not stated),inactive
7,CCOc1ccc(-n2c(SCC(=O)Nc3cc(C)ccc3C)nc3c([nH]c4ccccc43)c2=O)cc1,"inconclusive: 0.398 µM [rising, full curve, poor fit]"
8,CC(C)c1ccc(NC(=O)CSC2=Nc3ccccc3C3=NC(CCC(=O)NC4CCCCC4)C(=O)N23)cc1 (configuration not stated),inactive
9,CCOc1ccccc1CNC(=O)c1sc2ncccc2c1-n1cccc1,"inconclusive: 39.8 µM [cytotoxic, single point]"
10,CCOc1cc(C2c3c(-c4cc(C)ccc4O)n[nH]c3C(=O)N2CCCOC(C)C)ccc1O (configuration not stated),"inconclusive: 35.5 µM [cytotoxic, single point]"
11,CCN(CC)c1ccc(-c2nc(-c3ccncc3)no2)cc1[N+](=O)[O-],inactive
12,Cc1cc(C)cc(C(=O)N2CC(=O)Nc3ccc(C)cc3C2c2ccccc2)c1 (configuration not stated),"inconclusive: 17.8 µM [cytotoxic, single point]"
13,CCN1C(=O)c2cccc3c(S(=O)(=O)Nc4ccc(O)c(C(=O)O)c4)ccc1c23,inactive
14,c1ccc(C(c2cccs2)c2c[nH]c3ccccc23)cc1 (configuration not stated),"inconclusive: 39.8 µM [rising, single point]"
15,O=S(=O)(NCC(c1ccco1)N1CCN(c2ccc(F)cc2)CC1)c1ccccc1 (configuration not stated),"inconclusive: 39.8 µM [cytotoxic, partial curve, poor fit]"
16,CCn1c(=N)c(C(=O)NCc2cccnc2)cc2c(=O)n3cc(C)ccc3nc21,inactive
17,CCS(=O)(=O)c1ccccc1C(=O)N(Cc1cccnc1)c1nc2cc(C)c(C)cc2s1,"inconclusive: 39.8 µM [cytotoxic, single point]"
18,CCc1ccc(NC(=O)N2CCN(Cc3cc(=O)n4nc(-c5ccccc5OC)sc4n3)CC2)cc1,"inconclusive: 39.8 µM [cytotoxic, single point]"
19,Cc1cccc(C)c1OCCCCn1c(C2CC(=O)N(c3ccc(F)cc3)C2)nc2ccccc21 (configuration not stated),"inconclusive: 35.5 µM [cytotoxic, single point]"
20,Cc1cc(NS(=O)(=O)c2ccc3nc(-c4ccccc4)[nH]c3c2)ccc1Br,"inconclusive: 28.2 µM [cytotoxic, partial curve, poor fit]"
21,COc1ccccc1-c1noc(CSc2nnc(Cc3ccccc3)n2-c2ccc(C)c(C)c2)n1,"inconclusive: 20 µM [cytotoxic, partial curve, poor fit]"

row,SMILES,Potency
1,COc1ccc(-c2cn3cccnc3n2)cc1NC(=O)c1c(F)cccc1F,"inconclusive: 25.1 µM [rising, partial curve, poor fit]"
2,Cc1cc(C)c(NC(=O)Cn2c(SCC(=O)NCc3ccccc3)nc3ccccc32)c(C)c1,"inconclusive: 39.8 µM [cytotoxic, single point]"
3,COc1ccc(C(=O)Nc2cccc(-c3cn4ccsc4n3)c2)cc1OC,inactive
4,Cc1ccccc1Cn1c(CN2CCC(C(=O)NCc3cccnc3)CC2)cc2ccccc21,"inconclusive: 39.8 µM [cytotoxic, single point]"
5,COc1cccc(Cc2nc3ccccc3nc2SCC(=O)NCCc2ccccc2)c1,"inconclusive: 25.1 µM [rising, partial curve, poor fit]"
6,COc1ccc(C2C=C(c3ccc(F)cc3)Nc3nc(-c4ccc(Cl)cc4)nn32)cc1 (configuration not stated),"inconclusive: 39.8 µM [cytotoxic, single point]"
7,COc1ccc(-n2nc3c(N4CCC(C(=O)NCc5cccc(F)c5)CC4)nnc(C)c3c2C)cc1,"inconclusive: 31.6 µM [cytotoxic, single point]"
8,Cc1ccc(-c2nc3ccccc3[nH]2)cc1NC(=O)COc1ccccc1[N+](=O)[O-],inactive
9,CCc1ccc(NC(=O)C2CCN(c3nn4cc(-c5ccc(OC)cc5)nc4s3)CC2)cc1,inactive
10,CC(C)c1ccc(C2Sc3ccccc3NC3=C2C(=O)c2ccccc23)cc1 (configuration not stated),inactive
11,COc1ccc(-c2nc3c(c(SCC(=O)Nc4cccc(O)c4)n2)Cc2c(CO)cnc(C)c2O3)cc1,"inconclusive: 35.5 µM [cytotoxic, single point]"
12,O=C1CCCc2cc(S(=O)(=O)NCC3CCC(C(=O)Nc4ccc(Cl)cc4)CC3)ccc2N1 (configuration not stated),"inconclusive: 10 µM [cytotoxic, partial curve]"
13,Cc1cc(Nc2ccc(Br)cc2)n2nc(-c3ccccc3C)nc2n1,"inconclusive: 39.8 µM [cytotoxic, single point]"
14,CCCCCCOc1ccc(/C=C/C(=O)Nc2sc3c(c2C(=O)OC)CCC3)cc1OC,"inconclusive: 35.5 µM [cytotoxic, single point]"
15,O=C(Cn1ncc2c3ccccc3n(Cc3ccccc3)c2c1=O)NCc1cccs1,inactive
16,CCOC(=O)C1=C(CN2CCN(c3ccc(Cl)cc3)CC2)NC(=O)NC1c1ccc(OC)cc1 (configuration not stated),"inconclusive: 25.1 µM [cytotoxic, single point]"
17,O=S(=O)(NCc1ccc(F)cc1)c1ccc(N2CCCCS2(=O)=O)cc1,"inconclusive: 25.1 µM [cytotoxic, single point]"
18,CCOC(=O)c1ccc(NC(=O)CSc2nc3c(c(=O)[nH]2)CN(Cc2ccccc2)CC3)cc1,"inconclusive: 28.2 µM [cytotoxic, single point]"
19,COc1ccc(-n2nc3c(N4CCC(C(=O)NCc5ccccc5C)CC4)nnc(C)c3c2C)cc1,"inconclusive: 39.8 µM [cytotoxic, single point]"
20,Cc1cccc(-c2noc(-c3cc(C(C)C)[nH]n3)n2)c1,"inconclusive: 35.5 µM [cytotoxic, single point]"
